According to patent US20210269542A1 (POTENZA THERAPEUTICS, published 2021):
Numbering of substitutions follows the chain as printed. Names may count otherwise.

T1: human GITR-Fc (human, UniProt Q9Y5U5 26-162)
T1 construct: also called recombinant hGITR; wild type human GITR-Fc
T1 sequence: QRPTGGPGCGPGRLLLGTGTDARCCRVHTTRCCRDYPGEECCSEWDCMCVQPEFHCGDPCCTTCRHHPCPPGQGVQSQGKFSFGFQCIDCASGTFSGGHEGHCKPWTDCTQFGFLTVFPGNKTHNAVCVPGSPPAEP

T2: mouse GITR-Fc (mouse, UniProt O35714 20-153)
T2 construct: also called mGITR
T2 sequence: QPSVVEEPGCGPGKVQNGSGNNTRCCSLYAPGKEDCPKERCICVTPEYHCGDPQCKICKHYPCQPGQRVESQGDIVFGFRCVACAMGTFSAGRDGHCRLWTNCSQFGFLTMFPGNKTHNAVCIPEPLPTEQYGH

T3: cyno GITR-Fc (cynomolgus monkey)
T3 construct: also called cGITR; cynomolgus GITR
T3 chain: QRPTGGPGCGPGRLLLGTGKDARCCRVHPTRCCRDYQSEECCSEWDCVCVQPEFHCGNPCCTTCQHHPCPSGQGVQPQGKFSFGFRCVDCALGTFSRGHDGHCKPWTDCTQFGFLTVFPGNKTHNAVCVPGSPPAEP

T4: human GITR T43R-Fc (human, UniProt Q9Y5U5 26-162)
T4 construct: also called hGITR-T43R; Human GITR-Fc T43R
T4 chain: T1 sequence with T18R

T5: human GITR expressed on cells (human, UniProt Q9Y5U5 26-241)
T5 sequence: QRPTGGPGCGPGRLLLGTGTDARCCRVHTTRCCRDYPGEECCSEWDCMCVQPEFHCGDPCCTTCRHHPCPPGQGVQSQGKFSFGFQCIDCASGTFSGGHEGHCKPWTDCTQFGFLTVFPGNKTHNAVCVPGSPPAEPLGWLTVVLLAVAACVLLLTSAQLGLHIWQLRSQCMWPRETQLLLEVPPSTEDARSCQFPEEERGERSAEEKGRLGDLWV

T6: cynomolgus monkey GITR expressed on HT1080 cells (cynomolgus monkey)
T6 chain: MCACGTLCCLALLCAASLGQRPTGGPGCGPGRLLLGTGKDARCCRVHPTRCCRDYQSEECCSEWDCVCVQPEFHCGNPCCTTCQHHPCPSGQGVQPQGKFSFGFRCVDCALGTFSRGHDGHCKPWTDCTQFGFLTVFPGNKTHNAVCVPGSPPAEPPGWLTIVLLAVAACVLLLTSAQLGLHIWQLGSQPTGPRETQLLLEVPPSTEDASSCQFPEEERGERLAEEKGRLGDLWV

B1: ABP1 (antibody, human IgG4 S228P, kappa)
heavy: QVQLQESGPGLVKPSETLSLTCAVSGYSISSGLGWGWIRQPPGKGLEWIGGIYESGSTYYNPSLKSRVTISVDTSKNQFSLKLSSVTAADTAVYYCAHERVRGYGDYGGHHAFDIWGQGTMVTVSSASTKGPSVFPLAPSSKSTSGGTAALGCLVKDYFPEPVTVSWNSGALTSGVHTFPAVLQSSGLYSLSSVVTVPSSSLGTQTYICNVNHKPSNTKVDKRVEPKSCGGGGSQVQLQESGPGLVKPSETLSLTCAVSGYSISSGLGWGWIRQPPGKGLEWIGGIYESGSTYYNPSLKSRVTISVDTSKNQFSLKLSSVTAADTAVYYCAHERVRGYGDYGGHHAFDIWGQGTMVTVSSASTKGPSVFPLAPCSRSTSESTAALGCLVKDYFPEPVTVSWNSGALTSGVHTFPAVLQSSGLYSLSSVVTVPSSSLGTKTYTCNVDHKPSNTKVDKRV[human IgG4 Fc with S228P (EU numbers) left out]
light: [about 100 residues left out][about 120 residues left out]
notes: Tetravalent monospecific (TM) format, N-terminal Fab: VH + IgG1 CH1 + GGGGS + VH + IgG4 S228P; heavy chain with or without C-terminal Lys; also called ABP1 IgG4 TM
B2: ABP5 (antibody, human IgG4 S228P, kappa)
heavy: QVQLQESGPGLVKPSETLSLTCAVSGYSISSGAGWGWIRQPPGKGLEWIGLIVHSGSTYYNPSLKSRVTISVDTSKNQFSLKLSSVTAADTAVYYCVLESVRGYGDYGGHHAFDIWGQGTMVTVSSASTKGPSVFPLAPSSKSTSGGTAALGCLVKDYFPEPVTVSWNSGALTSGVHTFPAVLQSSGLYSLSSVVTVPSSSLGTQTYICNVNHKPSNTKVDKRVEPKSCGGGGSQVQLQESGPGLVKPSETLSLTCAVSGYSISSGAGWGWIRQPPGKGLEWIGLIVHSGSTYYNPSLKSRVTISVDTSKNQFSLKLSSVTAADTAVYYCVLESVRGYGDYGGHHAFDIWGQGTMVTVSSASTKGPSVFPLAPCSRSTSESTAALGCLVKDYFPEPVTVSWNSGALTSGVHTFPAVLQSSGLYSLSSVVTVPSSSLGTKTYTCNVDHKPSNTKVDKRV[human IgG4 Fc with S228P (EU numbers) left out]
light: DIQMTQSPSSLSASVGDRVTITCRASKSIDSYLNWYQQKPGKAPKLLIYAASSLQSGVPSRFSGSGSGTDFTLTISSLQPEDFATYYCQQEYNTPPTFGGGTKVEIKRTVAAPSVFIFPPSDEQLKSGTASVVCLLNNFYPREAKVQWKVDNALQSGNSQESVTEQDSKDSTYSLSSTLTLSKADYEKHKVYACEVTHQGLSSPVTKSFNRGEC
notes: TM format, N-terminal Fab: VH + IgG1 CH1 + GGGGS + VH + IgG4 S228P; heavy chain with or without C-terminal Lys; also called ABPS
B3: ABP3 (antibody, human IgG4 S228P, kappa)
heavy: B2 heavy
light: B2 light with K27Q, D30S, Q55K, S56Y
notes: TM format, N-terminal Fab: VH + IgG1 CH1 + GGGGS + VH + IgG4 S228P; heavy chain with or without C-terminal Lys
B4: ABP4 (antibody, human IgG4 S228P, kappa)
heavy: B2 heavy with L46P, L280P
light: B2 light
notes: as for B3
B5: ABP6 (antibody, human IgG4 S228P, kappa)
heavy: B2 heavy
light: B2 light with K27Q, D30S, S52D
notes: as for B3
B6: ABP2 (antibody, human IgG4 S228P, kappa)
heavy: QVQLQESGPGLVKPSQTLSLTCTVSGGSISSGGAVWSWIRQHPGKGLEWIGGIAYSGSTYYNPSLKSRVTISVDTSKNQFSLKLSSVTAADTAVYYCADENVRGYGDYGGHHAFDIWGQGTMVTVSSASTKGPSVFPLAPSSKSTSGGTAALGCLVKDYFPEPVTVSWNSGALTSGVHTFPAVLQSSGLYSLSSVVTVPSSSLGTQTYICNVNHKPSNTKVDKRVEPKSCGGGGSQVQLQESGPGLVKPSQTLSLTCTVSGGSISSGGAVWSWIRQHPGKGLEWIGGIAYSGSTYYNPSLKSRVTISVDTSKNQFSLKLSSVTAADTAVYYCADENVRGYGDYGGHHAFDIWGQGTMVTVSSASTKGPSVFPLAPCSRSTSESTAALGCLVKDYFPEPVTVSWNSGALTSGVHTFPAVLQSSGLYSLSSVVTVPSSSLGTKTYTCNVDHKPSNTKVDKRV[human IgG4 Fc with S228P (EU numbers) left out]
light: [about 100 residues left out][about 100 residues left out]
notes: as for B3

What was measured:
human GITR-Fc [1] = target: T1, human GITR-Fc; assay: BLI Octet, ABP on AHC sensor, 25 nM antigen, single concentration
mouse GITR-Fc = target: T2, mouse GITR-Fc; assay: as above
cyno GITR-Fc [2] = target: T3, cyno GITR-Fc; assay: as above
human GITR T43R-Fc [3] = target: T4, human GITR T43R-Fc; assay: as above
[4] = target: T5, human GITR expressed on cells; assay: cell-based or functional assay
[5] = target: T6, cynomolgus monkey GITR expressed on …; assay: cell-based or functional assay
[6] = target: T5, human GITR expressed on cells; assay: cell-based or functional assay; remark: listed apart in the source
human GITR T43R-Fc [7] = target: T4, human GITR T43R-Fc; assay: BLI Octet, ABP on AHC sensor, antigen 50-0.78 nM, multi-concentration, n = 1
human GITR-Fc [8] = target: T1, human GITR-Fc; assay: BLI Octet, ABP on AHC sensor, antigen 50-0.78 nM, multi-concentration, n = 3
cyno GITR-Fc [9] = target: T3, cyno GITR-Fc; assay: as above

Binder | Kd (human GITR-Fc [1]) | binding result (mouse GITR-Fc) | Kd (cyno GITR-Fc [2]) | Kd (human GITR T43R-Fc [3]) | % Maximum IL-8 Induction Relative to GITRL in human HT1080 [4] | Average EC50 in Human HT1080 (IL-8 induction) [4] | % Maximum IL-8 Induction Relative to GITRL in cynomolgus HT1080 [5] | Average EC50 in cynomolgus HT1080 (IL-8 induction) [5] | % Activity Compared to GITRL, Jurkat cells expressing human GITR [6] | EC50, Jurkat cells expressing human GITR [6] | Kd (human GITR T43R-Fc [7]) | Kd (human GITR-Fc [8]) | Kd (cyno GITR-Fc [9])
B1 | 0.77 nM | no binding (tested: 25 nM) | 0.88 nM | 0.94 nM | 97% | 0.118 nM | 91% | 0.104 nM | 104% | 0.3 nM | 0.53 nM | 0.32 nM | 0.62 nM
B2 | 0.57 nM | no binding (tested: 25 nM) | 1.21 nM | 0.7 nM | 95% | 0.107 nM | 103% | 0.062 nM | 104% | 0.25 nM | 0.073 nM | 0.12 nM | 1.1 nM
B3 | 0.58 nM | no binding (tested: 25 nM) | 1.1 nM | 0.71 nM | 96% | 0.097 nM | 92% | 0.072 nM | 120% | 0.19 nM | 0.0027 nM | 0.12 nM | 1.1 nM
B4 | 0.5 nM | no binding (tested: 25 nM) | 1.19 nM | 0.72 nM | 85% | 0.092 nM | 102% | 0.044 nM | 117% | 0.22 nM | 0.0045 nM | 0.11 nM | 1.5 nM
B5 | 0.63 nM | no binding (tested: 25 nM) | 1.09 nM | 0.71 nM | 96% | 0.083 nM | 92% | 0.077 nM | 121% | 0.29 nM | 0.035 nM | 0.15 nM | 1.6 nM
B6 | 0.55 nM | no binding (tested: 25 nM) | 0.79 nM | 0.73 nM | 97% | 0.126 nM | 80% | 0.061 nM | 114% | 0.21 nM | 0.1 nM | 0.23 nM | 0.71 nM
